Laboratory results reported in the supplement of paper PMC8728848.
The list shows a part of the results.

How the values were obtained:
Assay in all cases: glycan array binding signal (z-score within array); higher = stronger binding
Settings in all cases: glycan notation: IUPAC condensed, linker removed
[1] = molecular target: Fuc(a1-2)[Gal(a1-3)]Gal(b1-4)[Fuc(a1-3)]GlcNAc(b1-3)GalNAc
Summary of the method: (§1)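 Glycan array data were curated from 3228 arrays in the Consortium for Functional Glycomics database and kept only where the protein sequence was available. Glycan names were converted to IUPAC-condensed notation, and columns mapping to the same glycan were averaged. The binding signal is a within-array Z-score, averaged across arrays of the same protein sequence at different concentrations or buffers and across linkers. Negative Z-scores can be read as non-binding.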

[2] = molecular target: Fuc(a1-2)[Gal(a1-4)]Gal(b1-4)GlcNAc
Summary of the method: as §1

[3] = molecular target: Fuc(a1-2)[GalNAc(a1-3)]Gal
Summary of the method: as §1

[4] = molecular target: Fuc(a1-2)[GalNAc(a1-3)]Gal(b1-3)GalNAc(a1-3)[Fuc(a1-2)]Gal(b1-4)GlcNAc
Summary of the method: as §1

[5] = molecular target: Fuc(a1-2)[GalNAc(a1-3)]Gal(b1-3)GalNAc(b1-3)Gal(a1-4)Gal(b1-4)Glc
Summary of the method: as §1

[6] = molecular target: Fuc(a1-2)[GalNAc(a1-3)]Gal(b1-3)GlcNAc
Summary of the method: as §1

[7] = molecular target: Fuc(a1-2)[GalNAc(a1-3)]Gal(b1-3)GlcNAc(b1-2)Man(a1-3)[Fuc(a1-2)[GalNAc(a1-3)]Gal(b1-3)GlcNAc(b1-2)Man(a1-6)]Man(b1-4)GlcNAc(b1-4)GlcNAc
Summary of the method: as §1

[8] = molecular target: Fuc(a1-2)[GalNAc(a1-3)]Gal(b1-3)GlcNAc(b1-2)Man(a1-3)[Fuc(a1-2)[GalNAc(a1-3)]Gal(b1-3)GlcNAc(b1-2)Man(a1-6)]Man(b1-4)GlcNAc(b1-4)[Fuc(a1-6)]GlcNAc
Summary of the method: as §1

[9] = molecular target: Fuc(a1-2)[GalNAc(a1-3)]Gal(b1-3)GlcNAc(b1-3)GalNAc
Summary of the method: as §1

[10] = molecular target: Fuc(a1-2)[GalNAc(a1-3)]Gal(b1-3)GlcNAc(b1-6)GalNAc
Summary of the method: as §1

[11] = molecular target: Fuc(a1-2)[GalNAc(a1-3)]Gal(b1-4)Glc
Summary of the method: as §1

[12] = molecular target: Fuc(a1-2)[GalNAc(a1-3)]Gal(b1-4)GlcNAc
Summary of the method: as §1

[13] = molecular target: Fuc(a1-2)[GalNAc(a1-3)]Gal(b1-4)GlcNAc(b1-2)Man
Summary of the method: as §1

[14] = molecular target: Fuc(a1-2)[GalNAc(a1-3)]Gal(b1-4)GlcNAc(b1-2)Man(a1-3)[Fuc(a1-2)[GalNAc(a1-3)]Gal(b1-4)GlcNAc(b1-2)Man(a1-6)]Man(b1-4)GlcNAc(b1-4)GlcNAc
Summary of the method: as §1

[15] = molecular target: Fuc(a1-2)[GalNAc(a1-3)]Gal(b1-4)GlcNAc(b1-2)Man(a1-3)[Fuc(a1-2)[GalNAc(a1-3)]Gal(b1-4)GlcNAc(b1-2)Man(a1-6)]Man(b1-4)GlcNAc(b1-4)[Fuc(a1-6)]GlcNAc
Summary of the method: as §1

[16] = molecular target: Fuc(a1-2)[GalNAc(a1-3)]Gal(b1-4)GlcNAc(b1-3)Gal(b1-4)GlcNAc
Summary of the method: as §1

[17] = molecular target: Fuc(a1-2)[GalNAc(a1-3)]Gal(b1-4)GlcNAc(b1-3)Gal(b1-4)GlcNAc(b1-3)Gal(b1-4)GlcNAc
Summary of the method: as §1

[18] = molecular target: Fuc(a1-2)[GalNAc(a1-3)]Gal(b1-4)GlcNAc(b1-3)GalNAc
Summary of the method: as §1

[19] = molecular target: Fuc(a1-2)[GalNAc(a1-3)]Gal(b1-4)GlcNAc(b1-3)[Fuc(a1-2)[GalNAc(a1-3)]Gal(b1-4)GlcNAc(b1-6)]GalNAc
Summary of the method: as §1

[20] = molecular target: Fuc(a1-2)[GalNAc(a1-3)]Gal(b1-4)GlcNAc(b1-6)GalNAc
Summary of the method: as §1

[21] = molecular target: Fuc(a1-2)[GalNAc(a1-3)]Gal(b1-4)[Fuc(a1-3)]GlcNAc
Summary of the method: as §1

[22] = molecular target: Fuc(a1-2)[GalNAc(a1-3)]Gal(b1-4)[Fuc(a1-3)]GlcNAc(b1-3)GalNAc
Summary of the method: as §1

[23] = molecular target: Fuc(a1-2)[GalNAc(a1-4)]Gal(b1-4)GlcNAc
Summary of the method: as §1

B1: HBHA-Rv (Mycobacterium tuberculosum), P0A5P6 (protein)
chain: MAENSNIDDIKAPLLAALGAADLALATVNELITNLRERAEETRTDTRSRVEESRARLTKLQEDLPEQLTELREKFTAEELRKAAEGYLEAATSRYNELVERGEAALERLRSQQSFEEVSARAEGYVDQAVELTQEALGTVASQTRAVGERAAKLVGIELPKKAAPAKKAAPAKKAAPAKKAAAKKAPAKKAAAKKVTQK
glycan array binding signal (z-score) [1]: -0.19
glycan array binding signal (z-score) [2]: 0.274
glycan array binding signal (z-score) [3]: 0.042
glycan array binding signal (z-score) [4]: -0.141
glycan array binding signal (z-score) [5]: -0.404
glycan array binding signal (z-score) [6]: 0.418
glycan array binding signal (z-score) [7]: -0.467
glycan array binding signal (z-score) [8]: -0.165
glycan array binding signal (z-score) [9]: -0.274
glycan array binding signal (z-score) [10]: -0.378
glycan array binding signal (z-score) [11]: 0.064
glycan array binding signal (z-score) [12]: -0.201
glycan array binding signal (z-score) [13]: -0.39
glycan array binding signal (z-score) [14]: -0.377
glycan array binding signal (z-score) [15]: 0.325
glycan array binding signal (z-score) [16]: -0.448
glycan array binding signal (z-score) [17]: -0.385
glycan array binding signal (z-score) [18]: -0.256
glycan array binding signal (z-score) [19]: 0.262
glycan array binding signal (z-score) [20]: -0.434
glycan array binding signal (z-score) [21]: 0.081
glycan array binding signal (z-score) [22]: -0.185
glycan array binding signal (z-score) [23]: -0.184
